Where “and” joins values, the source holds several entries; their conditions need not be identical. Identical values can stand only once.
Molecular target: Mammalian PARP, isolated from Hela cell nuclear extract (Homo sapiens, UniProt P09874)
Assay: PARP inhibition assay (FlashPlate, 3H-NAD incorporation) to determine IC50
Assay type: biochemical
Conditions: mean IC50
Experimental: In order to assess the inhibitory action of the compounds, the following assay was used to determine IC50 values (Dillon, et al., JBS., 8(3), 347-352 (2003)).
All compounds were diluted in DMSO and gave final assay concentrations of between 10 and 0.01 μM, with the DMSO being at a final concentration of 1% per well. The total assay volume per well was 40 μL.
After 10 minutes incubation at 30° C. the reactions were initiated by the addition of a 10 μl reaction mixture, containing NAD (5 μM), ^3H-NAD and 30mer double stranded DNA-oligos. Designated positive and negative reaction wells were done in combination with compound wells (unknowns) in order to calculate % enzyme activities. The plates were then shaken for 2 minutes and incubated at 30° C. for 45 minutes.
Following the incubation, the reactions were quenched by the addition of 50 μl 30% acetic acid to each well. The plates were then shaken for 1 hour at room temperature.
The plates were transferred to a TopCount NXT (TRADE MARK) (Packard, UK) for scintillation counting. Values recorded are counts per minute (cpm) following a 30 second counting of each well.
The % enzyme activity for each compound is then calculated using the following equation: […]
IC50 values (the concentration at which 50% of the enzyme activity is inhibited) were calculated, which are determined over a range of different concentrations, normally from 10 μM down to 0.001 μM. Such IC50 values are used as comparative values to identify increased compound potencies.

O=C(Nc1ccccc1)Nc1ccc(-c2cc(Cc3n[nH]c(=O)c4ccccc34)ccc2F)cc1 [Compound 201]
IC50: 67 nM

O=c1[nH]nc(Cc2ccc(F)c(-c3ccc(NS(=O)(=O)c4ccccc4)cc3)c2)c2ccccc12 [Compound 202]
IC50: 23 nM

COc1ccc(S(=O)(=O)Nc2ccc(-c3cc(Cc4n[nH]c(=O)c5ccccc45)ccc3F)cc2)cc1 [Compound 203]
IC50: 20 nM

O=c1[nH]nc(Cc2ccc(F)c(-c3ccc(NS(=O)(=O)c4ccc(Cl)cc4)cc3)c2)c2ccccc12 [Compound 204]
IC50: 41 nM

Cc1noc(C)c1S(=O)(=O)Nc1ccc(-c2cc(Cc3n[nH]c(=O)c4ccccc34)ccc2F)cc1 [Compound 205]
IC50: 8 nM

O=c1[nH]nc(Cc2ccc(F)c(-c3ccc(NS(=O)(=O)c4ccc(F)cc4)cc3)c2)c2ccccc12 [Compound 206]
IC50: 14 nM

O=c1[nH]nc(Cc2ccc(F)c(-c3ccc(NS(=O)(=O)c4cccc5nonc45)cc3)c2)c2ccccc12 [Compound 207]
IC50: 10 nM

CCCCS(=O)(=O)Nc1ccc(-c2cc(Cc3n[nH]c(=O)c4ccccc34)ccc2F)cc1 [Compound 208]
IC50: 4 nM

O=c1[nH]nc(Cc2ccc(F)c(-c3ccc(NS(=O)(=O)Cc4ccccc4)cc3)c2)c2ccccc12 [Compound 209]
IC50: 5 nM

N#Cc1ccc(S(=O)(=O)Nc2ccc(-c3cc(Cc4n[nH]c(=O)c5ccccc45)ccc3F)cc2)cc1 [Compound 210]
IC50: 32 nM

Cc1nc(C)c(S(=O)(=O)Nc2ccc(-c3cc(Cc4n[nH]c(=O)c5ccccc45)ccc3F)cc2)s1 [Compound 211]
IC50: 7 nM

O=c1[nH]nc(Cc2ccc(F)c(-c3ccc(NS(=O)(=O)c4cccs4)cc3)c2)c2ccccc12 [Compound 212]
IC50: 14 nM

O=c1[nH]nc(Cc2ccc(F)c(-c3ccc(NS(=O)(=O)c4ccc(Cl)s4)cc3)c2)c2ccccc12 [Compound 213]
IC50: 27 nM

Cc1oncc1S(=O)(=O)Nc1ccc(-c2cc(Cc3n[nH]c(=O)c4ccccc34)ccc2F)cc1 [Compound 214]
IC50: 10 nM

CCN1CCN(C(=O)c2ccc(-c3cc(Cc4n[nH]c(=O)c5ccccc45)ccc3F)cc2)CC1 [Compound 215]
IC50: 765 nM

COCCN1CCN(C(=O)c2ccc(-c3cc(Cc4n[nH]c(=O)c5ccccc45)ccc3F)cc2)CC1 [Compound 216]
IC50: 1210 nM

O=C(c1ccc(-c2cc(Cc3n[nH]c(=O)c4ccccc34)ccc2F)cc1)N1CCN(CCO)CC1 [Compound 217]
IC50: 839 nM

CN1CCCN(C(=O)c2ccc(-c3cc(Cc4n[nH]c(=O)c5ccccc45)ccc3F)cc2)CC1 [Compound 218]
IC50: 1700 nM

CN1CCN(C(=O)c2ccc(-c3cc(Cc4n[nH]c(=O)c5ccccc45)ccc3F)cc2)CC1 [Compound 219]
IC50: 1190 nM

O=C(c1ccc(-c2cc(Cc3n[nH]c(=O)c4ccccc34)ccc2F)cc1)N1CCCN(CCO)CC1 [Compound 221]
IC50: 1600 nM

CC(=O)N1CCN(C(=O)c2ccc(-c3cc(Cc4n[nH]c(=O)c5ccccc45)ccc3F)cc2)CC1 [Compound 222]
IC50: 991 nM

O=C(c1ccc(-c2cc(Cc3n[nH]c(=O)c4ccccc34)ccc2F)cc1)N1CCc2ccccc2C1 [Compound 223]
IC50: 97 nM

CC(=O)c1cccc(-c2csc(Cc3n[nH]c(=O)c4ccccc34)c2)c1 [Compound 224]
IC50: 924 nM

O=C(NCc1ccco1)c1cccc(-c2csc(Cc3n[nH]c(=O)c4ccccc34)c2)c1 [Compound 227]
IC50: 191 nM

O=c1[nH]nc(Cc2cc(-c3ccoc3)cs2)c2ccccc12 [Compound 228]
IC50: 319 nM

O=c1[nH]nc(Cc2csc(-c3ccccc3)n2)c2ccccc12 [Compound 229, 4-(2-Phenyl-thiazol-4-ylmethyl)-2H-phthalazin-1-one]
IC50: 646 nM

O=c1[nH]nc(Cc2ccc(F)c(-c3ccc(CNCc4ccc(F)cc4)o3)c2)c2ccccc12 [Compound 230]
IC50: 30 nM

O=c1[nH]nc(Cc2ccc(F)c(-c3ccc(CN4CCN(c5ccccc5)CC4)o3)c2)c2ccccc12 [Compound 231]
IC50: 57 nM

O=c1[nH]nc(Cc2ccc(F)c(-c3ccc(CNCc4ccccc4)o3)c2)c2ccccc12 [Compound 232]
IC50: 28 nM

O=c1[nH]nc(Cc2ccc(F)c(-c3ccc(CN4CCN(c5ccccn5)CC4)o3)c2)c2ccccc12 [Compound 233]
IC50: 26 nM

O=c1[nH]nc(Cc2ccc(F)c(-c3ccc(CN4CCc5ccccc5C4)o3)c2)c2ccccc12 [Compound 234]
IC50: 71 nM

CN1CCN(Cc2ccc(-c3cc(Cc4n[nH]c(=O)c5ccccc45)ccc3F)o2)CC1 [Compound 235]
IC50: 41 nM

O=c1[nH]nc(Cc2ccc(F)c(-c3ccc(CN4CCOCC4)o3)c2)c2ccccc12 [Compound 236]
IC50: 45 nM

O=c1[nH]nc(Cc2ccc(F)c(-c3ccc(CN4CCCCC4)o3)c2)c2ccccc12 [Compound 237]
IC50: 43 nM

COCCN1CCN(Cc2ccc(-c3cc(Cc4n[nH]c(=O)c5ccccc45)ccc3F)o2)CC1 [Compound 238]
IC50: 35 nM

O=c1[nH]nc(Cc2ccc(F)c(-c3ccc(CN4CCN(C5CCCCC5)CC4)o3)c2)c2ccccc12 [Compound 239]
IC50: 89 nM

CN(C)CCN1CCN(Cc2ccc(-c3cc(Cc4n[nH]c(=O)c5ccccc45)ccc3F)o2)CC1 [Compound 240]
IC50: 30 nM

CC(C)N1CCN(Cc2ccc(-c3cc(Cc4n[nH]c(=O)c5ccccc45)ccc3F)o2)CC1 [Compound 241]
IC50: 124 nM

O=c1[nH]nc(Cc2ccc(F)c(-c3ccc(NS(=O)(=O)CC4CCCCC4)cc3)c2)c2ccccc12 [Compound 242]
IC50: 8 nM

O=c1[nH]nc(Cc2ccc(F)c(-c3ccc(NS(=O)(=O)CC4CCOC4)cc3)c2)c2ccccc12 (stereo not shown) [Compound 243]
IC50: 3 nM

O=c1[nH]nc(Cc2ccc(F)c(-c3ccc(NS(=O)(=O)CC4CCOCC4)cc3)c2)c2ccccc12 [Compound 244]
IC50: 3 nM

O=c1[nH]nc(Cc2ccc(F)c(-c3ccc(NS(=O)(=O)CCC4CCCCC4)cc3)c2)c2ccccc12 [Compound 246]
IC50: 41 nM

O=c1[nH]nc(Cc2ccc(F)c(-c3ccc(NS(=O)(=O)CC4CC4)cc3)c2)c2ccccc12 [Compound 248]
IC50: 3 nM

Nc1ccc(-c2cc(Cc3n[nH]c(=O)c4ccccc34)ccn2)cc1 [Compound 249, 4-[2-(4-Amino-phenyl)-pyridin-4-ylmethyl]-2H-phthalazin-1-one]
IC50: 64.3 nM

O=c1[nH]nc(Cc2ccnc(-c3ccc(NS(=O)(=O)CC4CCOC4)cc3)c2)c2ccccc12 (stereo not shown) [Compound 252]
IC50: 9 nM and 8 nM

O=C(Cc1ccccc1)Nc1ccc(-c2cc(Cc3n[nH]c(=O)c4ccccc34)ccn2)cc1 [Compound 253]
IC50: 177 nM

O=C(CC1CCCO1)Nc1ccc(-c2cc(Cc3n[nH]c(=O)c4ccccc34)ccn2)cc1 (stereo not shown) [Compound 254]
IC50: 367 nM

CC(=O)c1ccc(-c2cc(Cc3n[nH]c(=O)c4c3CCCC4)ccc2F)cc1 [Compound 255, 4-(4′-Acetyl-6-fluoro-biphenyl-3-ylmethyl)-5,6,7,8-tetrahydro-2H-phthalazin-1-one]
IC50: 53 nM

Nc1ccc(-c2cc(Cc3n[nH]c(=O)c4c3CCCC4)ccc2F)cc1 [Compound 256, 4-(4′-Amino-6-fluoro-biphenyl-3-ylmethyl)-5,6,7,8-tetrahydro-2H-phthalazin-1-one]
IC50: 43 nM

CCCCS(=O)(=O)Nc1ccc(-c2cc(Cc3n[nH]c(=O)c4c3CCCC4)ccc2F)cc1 [Compound 257]
IC50: 33 nM

O=c1[nH]nc(Cc2ccc(F)c(-c3ccc(NS(=O)(=O)CC4CCCO4)cc3)c2)c2c1CCCC2 (stereo not shown) [Compound 258]
IC50: 2.6 nM

O=c1[nH]nc(Cc2ccc(F)c(-c3ccc(NS(=O)(=O)CC4CCOC4)cc3)c2)c2c1CCCC2 (stereo not shown) [Compound 259]
IC50: 2.6 nM

O=c1[nH]nc(Cc2ccc(F)c(-c3ccc(NS(=O)(=O)CC4CCOCC4)cc3)c2)c2c1CCCC2 [Compound 260]
IC50: 2.3 nM

O=c1[nH]nc(Cc2ccc(F)c(-c3ccc(NS(=O)(=O)CC4CCCCC4)cc3)c2)c2c1CCCC2 [Compound 261]
IC50: 7 nM

O=c1[nH]nc(Cc2ccc(F)c(-c3ccc(NS(=O)(=O)CC4CCCC4)cc3)c2)c2c1CCCC2 [Compound 262]
IC50: 7.7 nM

O=c1[nH]nc(Cc2ccc(F)c(-c3ccc(NS(=O)(=O)CC4CC4)cc3)c2)c2c1CCCC2 [Compound 263]
IC50: 3.1 nM

O=C(Cc1ccccc1)Nc1ccc(-c2cc(Cc3n[nH]c(=O)c4c3CCCC4)ccc2F)cc1 [Compound 266]
IC50: 15 nM

O=C(Cc1ccncc1)Nc1ccc(-c2cc(Cc3n[nH]c(=O)c4c3CCCC4)ccc2F)cc1 [Compound 267]
IC50: 25 nM

O=c1[nH]nc(Cc2ccc(F)c(-c3ccco3)c2)c2c1CCCC2 [Compound 268, 4-(4-Fluoro-3-furan-2-yl-benzyl)-5,6,7,8-tetrahydro-2H-phthalazin-1-one]
IC50: 49 nM

Nc1cccc2c(=O)[nH]nc(Cc3ccc(F)c(-c4ccco4)c3)c12 [Compound 269, 5-Amino-4-(4-fluoro-3-furan-2-yl-benzyl)-2H-phthalazin-1-one]
IC50: 11 nM

Nc1cccc2c(Cc3ccc(F)c(-c4ccco4)c3)n[nH]c(=O)c12 [Compound 270, 8-Amino-4-(4-fluoro-3-furan-2-yl-benzyl)-2H-phthalazin-1-one]
IC50: 1070 nM

Reference: patent US20080280910A1, “PHTHALAZINONE DERIVATIVES” (priority 2007, published 2008)
